# Experimental data as given in publication PMC4336329 (PLoS ONE, 2015).
# Among all 310,000 compounds or so, about 14,000 (4.5%) showed an effect of 50% or more. Effects have a minus sign here. The list shows a part of the results.
# Target: human ether-à-go-go-related gene (hERG) potassium channel (human, UniProt Q12809)
# Test: primary screen, population patch clamp on CHO cells stably expressing hERG
# 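Also: peak tail current of the secondary pulse compared with the same well before compound.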
# human ether-à-go-go-related gene (hERG) potassium channel, sequence (Q12809 whole entry, looked up): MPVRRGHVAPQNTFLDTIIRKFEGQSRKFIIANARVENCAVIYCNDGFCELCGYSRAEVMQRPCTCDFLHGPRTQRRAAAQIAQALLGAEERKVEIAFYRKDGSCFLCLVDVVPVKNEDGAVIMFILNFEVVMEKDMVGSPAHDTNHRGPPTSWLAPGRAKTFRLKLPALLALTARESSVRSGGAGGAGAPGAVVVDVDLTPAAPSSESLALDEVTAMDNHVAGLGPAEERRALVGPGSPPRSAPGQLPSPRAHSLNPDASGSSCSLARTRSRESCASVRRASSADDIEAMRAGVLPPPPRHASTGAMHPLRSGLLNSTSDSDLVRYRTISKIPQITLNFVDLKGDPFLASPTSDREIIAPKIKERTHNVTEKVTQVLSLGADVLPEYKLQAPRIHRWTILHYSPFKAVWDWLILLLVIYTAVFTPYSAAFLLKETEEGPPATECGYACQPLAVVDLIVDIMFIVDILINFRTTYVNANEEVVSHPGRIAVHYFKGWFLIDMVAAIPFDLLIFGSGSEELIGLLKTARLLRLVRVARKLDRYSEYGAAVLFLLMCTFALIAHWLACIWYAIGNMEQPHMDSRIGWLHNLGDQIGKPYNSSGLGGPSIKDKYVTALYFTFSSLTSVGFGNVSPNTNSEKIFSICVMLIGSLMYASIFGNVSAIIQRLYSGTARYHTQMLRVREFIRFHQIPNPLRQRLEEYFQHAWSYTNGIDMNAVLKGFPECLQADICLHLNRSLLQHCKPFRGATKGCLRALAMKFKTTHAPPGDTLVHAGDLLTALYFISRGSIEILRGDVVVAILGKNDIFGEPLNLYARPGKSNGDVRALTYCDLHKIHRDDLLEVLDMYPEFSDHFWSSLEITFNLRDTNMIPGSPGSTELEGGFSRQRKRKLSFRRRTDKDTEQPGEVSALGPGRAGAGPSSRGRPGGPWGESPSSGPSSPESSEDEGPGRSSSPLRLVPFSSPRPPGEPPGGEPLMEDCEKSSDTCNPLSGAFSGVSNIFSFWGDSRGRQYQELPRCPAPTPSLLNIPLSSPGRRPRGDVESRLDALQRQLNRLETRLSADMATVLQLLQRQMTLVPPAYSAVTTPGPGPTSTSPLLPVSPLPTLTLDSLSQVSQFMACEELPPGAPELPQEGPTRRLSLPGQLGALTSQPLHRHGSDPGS
row,Structure (SMILES),"hERG current change (%, negative = inhibition) at 10uM [%]"
1,CCCc1cc(=O)[nH]c(SCC(=O)c2cc(C)n(C3CC3)c2C)n1,-1.13
2,CC1CC(=O)Nc2ccccc2N1S(=O)(=O)c1ccccc1 (stereo not shown),-3.01
3,COc1ccc(C(CCN2CCN(c3ccccc3)CC2)c2c(O)cc(OC)cc2OC)cc1 (stereo not shown),-30.5
4,CCCCOc1ccc(C(=O)N/N=C/c2cn[nH]c2-c2ccc(OC)c(OC)c2)cc1,-2.85
5,O=C(Nc1nc(-c2ccc(Cl)s2)cs1)c1ccco1,-11.1
6,Cc1c(NC(=O)Nc2ccc(F)cc2)c(=O)n(-c2ccccc2)n1C,17.8
7,Cl.O=C(N/N=C1/CN2CCC1CC2)c1cc2ccccc2cc1O,20
8,COc1cccc(CN(C)C(=O)c2ccc(NS(=O)(=O)c3ccc(F)cc3)cc2)c1OC,-9.34
9,COc1ccc(C(C[N+](=O)[O-])c2c(C)[nH]n(-c3ccccc3)c2=O)cc1 (stereo not shown),-7.97
10,Nc1cc(=O)[nH]c(SCCSc2ccccc2F)n1,12.3
11,CCOC(=O)c1ccc(NC(=O)c2cc(OC)c(OC)c(OC)c2Br)cc1,7.53
12,CCCN(CCC)C(=O)c1c(NC(=O)CC)sc2c1CCCCC2,-1.91
13,C[C@@H]1NC(=O)[C@H](CCC(=O)O)NC(=O)c2cc([N+](=O)[O-])cc(F)c2NCCC[C@@H](C(N)=O)NC1=O,15.2
14,O=C1C=C(N2CCCCC2)C2(CCCCC2)O1,11.3
15,Cc1cccc2cc(CN(CCCO)C(=O)Nc3cccc(Cl)c3)c(=O)[nH]c12,-28.4
16,O=C(CCc1nc2ccccc2c(=O)[nH]1)Nc1nnc(SCc2ccccc2F)s1,-1.22
17,CCn1c(SCC(=O)NC2CCCC2)nnc1-c1ccco1,14.8
18,CCC(C)n1c(SCC(=O)Nc2cc(C(C)(C)C)nn2-c2ccccc2)nc2ccccc2c1=O (stereo not shown),3.57
19,O=C(CSc1ncnc2c1oc1ccccc12)c1cccs1,11.5
20,CC(=O)NC(c1ccc(Cl)cc1Cl)c1ccc2cccnc2c1O (stereo not shown),10.3
21,CN(CC(=O)N1CCN(c2ccccn2)CC1)S(=O)(=O)c1cccc2nsnc12,-23.6
22,Cc1cc(C(=O)Nc2ccc(Br)cc2)cs1,-42
23,O=C(Cc1ccccc1)NCC(=O)OC(c1ccccc1)c1ccccc1,-10.1
24,CCOC(=O)CNC(=O)c1cccs1,21.6
25,COCCN(C(=O)c1ccco1)c1nnc(-c2ccc(F)cc2)s1,14.8
26,Cc1ccc(S(=O)(=O)Nc2ccc(-c3ccc4nncn4n3)cc2)cc1,-9.23
27,COC(=O)C1=C(c2ccc(-c3ccccc3)c(F)c2)C[C@@H]2CC[C@H]1N2C(=O)N1CCCC1,-8.37
28,COc1cccc(CN(C)C(=O)c2ccc3c(=O)n4c(nc3c2)CCC4)c1,-11.3

row,Structure (SMILES),"hERG current change (%, negative = inhibition) at 10uM [%]"
1,O=C(c1ccco1)N1CCN(c2c([N+](=O)[O-])nn(-c3ccc(Cl)cc3)[n+]2[O-])CC1,-57.2
2,CC(/C=N/NC(=O)c1ccc(Br)cc1)=C\c1ccccc1,-3.38
3,CCO[C@@H]1OC(C(N)=O)=C[C@H](c2ccccc2)[C@H]1CCCO,8.98
4,Cc1cc(C)c(NC(=O)CS(=O)CC(=O)N2CCN(c3cccc(C)c3C)CC2)c(C)c1 (stereo not shown),-17.6
5,CCOC(=O)Cc1csc(NC(=O)C(NC(=O)C2CCC(C)CC2)C(C)C)n1 (stereo not shown),23.5
6,CCc1nnc(NC(=O)CSc2nnc(Cc3ccc(OC)cc3)o2)s1,6.59
7,O=C(CSc1ncccn1)NCc1ccccc1Cl,-2.63
8,O=C(Nc1nc2ccccc2[nH]1)c1cccs1,10.4
9,O=C(O)c1cc(-c2ccc(/C=N/Nc3ccc(Cl)cc3)o2)ccc1Cl,21
10,CNC(=S)N1C2CCCC1CC(NC(=O)c1ccc(F)cc1)C2 (stereo not shown),6.93
11,C/C(=N\N)c1c(-c2ccccc2)c2cc(C)ccc2[nH]c1=O,0.204
12,CCc1cccc(CC)c1NC(=O)c1cccc(S(=O)(=O)N2CCN(C)CC2)c1,-4.14
13,CN=C1SC(CC(=O)Nc2ccccc2F)C(=O)N1/N=C/c1ccc(O)c(OC)c1 (stereo not shown),-11.1
14,COc1cc(OC)cc(OC(=O)C2CCN(C(=O)c3ccc(Cl)cc3)CC2)c1,-33.9
15,CC1=C(C(=O)OC2CCCC(C)C2)C(c2ccccc2)NC(=O)N1 (stereo not shown),-17.8
16,Cc1cc(S(=O)(=O)N2CCOCC2)ccc1OCC(=O)NCCN1CCOCC1,11.3
17,Nc1c(C(=O)NCc2ccco2)nnn1-c1ccccc1,2.52
18,C=CCOc1ccc(/C(CC)=N/O)c(OC)c1,-10.6
19,Cc1c(C(=O)Nc2nc3ccccc3[nH]2)oc2ccc(Br)cc12,-45.7
20,Cc1[nH][nH]c(=O)c1N=Nc1ccc(S(N)(=O)=O)cc1,11.3
21,CC(c1cc2ccccc2s1)N(O)C(N)=O (stereo not shown),-3.66
22,N#C/C(=C(/O)c1ccc(F)cc1)c1nc2ccccc2s1,24
23,CCN(c1cccc(C)c1)S(=O)(=O)c1cc(CN2C(=O)c3cccnc3C2=O)ccc1OC,-18.8
24,CCc1ncc(CN2CCC(C(=O)Nc3ccc(-n4nc(C)cc4C)cc3)CC2)cn1,-10.5
25,Cc1ccc(S(=O)(=O)CC(CN2CCOCC2)N2CCOCC2)cc1 (stereo not shown),6.6
26,CN(C)S(=O)(=O)c1cccc(NC(=O)c2cc(-c3cccs3)nn2-c2ccccc2)c1,22.3
27,Cc1cccc(NC(=O)Cc2noc3ccccc23)c1C,6.8
